# Laboratory results: a collection of fitness landscapes (doi:10.1126/science.1257360)
# Some of the results follow.
# B1: PhoQ; a variant is named by its letters at X, in order, P23837 (parent)
# chain: MKKLLRLFFPLSLRVRFLLATAAVVLVLSLAYGMVALIGYSVSFDKTTFRLLRGESNLFYTLAKWENNKLHVELPENIDKQSPTMTLIYDENGQLLWAQRDVPWLMKMIQPDWLKSNGFHEIEADVNDTSLLLSGDHSIQQQLQEVREDDDDAEMTHSVAVNVYPATSRMPKLTIVVVDTIPVELKSSYMVWSWFIYVLSANLLLVIPLLWVAAWWSLRPIEALAKEVRELEEHNRELLNPATTRELTSLVRNLNRLLKSERERYDKYRTTLTDLTHSLKTPLXXLQXXLRSLRSEKMSVSDAEPVMLEQISRISQQIGYYLHRASMRGGTLLSRELHPVAPLLDNLTSALNKVYQRKGVNISLDISPEISFVGEQNDFVEVMGNVLDNACKYCLEFVEISARQTDEHLYIVVEDDGPGIPLSKREVIFDRGQRVDTLRPGQGVGLAVAREITEQYEGKIVAGESMLGGARMEVIFGRQHSAPKDE
# Variants of: B1
# Test: enrichment ratio after two sorts for PhoP signalling (ratio (wild type AVST 3.29)); higher = more functional
# Conditions: with PhoP (E. coli)
row,Variant,enrichment ratio
1,LNLR,≤ 0.25
2,YGQD,≤ 0.25
3,RSNF,≤ 0.25
4,YNYD,≤ 0.25
5,SLKS,≤ 0.25
6,SHWR,≤ 0.25
7,FENG,≤ 0.25
8,VCHF,≤ 0.25
9,VWMT,≤ 0.25
10,RYVY,≤ 0.25
11,DVPA,≤ 0.25
12,HGND,≤ 0.25
13,MIND,≤ 0.25
14,NCTH,≤ 0.25
15,ALVS,≤ 0.25
16,IEPY,≤ 0.25
17,MKPM,≤ 0.25
18,AIHR,≤ 0.25
19,LHGW,≤ 0.25
20,YKYS,≤ 0.25
21,PRKD,≤ 0.25
22,LKKN,≤ 0.25
23,FMTD,≤ 0.25
24,YIHS,≤ 0.25
25,ISEY,≤ 0.25

row,Variant,enrichment ratio
1,YAKS,≤ 0.25
2,HHED,≤ 0.25
3,ITYD,≤ 0.25
4,TTII,≤ 0.25
5,RWFR,≤ 0.25
6,PLWW,≤ 0.25
7,WVRQ,≤ 0.25
8,LIKK,≤ 0.25
9,FGSS,≤ 0.25
10,SSVP,≤ 0.25
11,FYKQ,≤ 0.25
12,DYSK,≤ 0.25
13,VGVQ,≤ 0.25
14,ENSS,≤ 0.25
15,WHYL,≤ 0.25
16,SRSA,≤ 0.25
17,FWVQ,≤ 0.25
18,ESDQ,≤ 0.25
19,TAMV,14.2
20,RCHG,≤ 0.25
21,DPVN,≤ 0.25
22,ITGS,≤ 0.25
23,FKLC,≤ 0.25
24,FSGY,≤ 0.25
25,QVYT,≤ 0.25

row,Variant,enrichment ratio
1,LLGS,≤ 0.25
2,GSNF,≤ 0.25
3,FRTQ,≤ 0.25
4,FHIV,≤ 0.25
5,GYCF,≤ 0.25
6,IWIQ,≤ 0.25
7,EKTP,≤ 0.25
8,QIFR,≤ 0.25
9,LRGH,≤ 0.25
10,YEWI,≤ 0.25
11,GRHA,≤ 0.25
12,PWLF,≤ 0.25
13,KNMI,≤ 0.25
14,QGWY,75.8
15,KLFA,≤ 0.25
16,AVLK,1.67
17,YFYN,≤ 0.25
18,KDEI,≤ 0.25
19,GCVC,≤ 0.25
20,FYMD,≤ 0.25
21,ANFD,≤ 0.25
22,MYWR,≤ 0.25
23,IMPF,≤ 0.25
24,VQQS,≤ 0.25
25,SKYS,≤ 0.25

row,Variant,enrichment ratio
1,SYEI,≤ 0.25
2,GNLK,≤ 0.25
3,TPKG,≤ 0.25
4,SQMY,10.7
5,ILGV,≤ 0.25
6,DVSW,≤ 0.25
7,AGCY,3.39
8,KIRL,≤ 0.25
9,QECT,6.99
10,WCMV,≤ 0.25
11,HSCI,≤ 0.25
12,WSWH,≤ 0.25
13,PKKC,≤ 0.25
14,FMGE,≤ 0.25
15,EMAP,≤ 0.25
16,GDMG,≤ 0.25
17,DNHN,≤ 0.25
18,QKSG,≤ 0.25
19,HPSL,≤ 0.25
20,KAHF,≤ 0.25
21,SNWQ,≤ 0.25
22,MVII,≤ 0.25
23,WTRS,≤ 0.25
24,SNME,14.4
25,NPLV,≤ 0.25

row,Variant,enrichment ratio
1,HCSK,≤ 0.25
2,SDVK,≤ 0.25
3,NVFY,≤ 0.25
4,EGDV,≤ 0.25
5,TNSK,≤ 0.25
6,LESA,≤ 0.25
7,RYSV,≤ 0.25
8,TFLQ,≤ 0.25
9,FDHW,≤ 0.25
10,NTGF,≤ 0.25
11,QRTL,≤ 0.25
12,IPFR,≤ 0.25
13,ECAQ,≤ 0.25
14,LKAL,≤ 0.25
15,MWPS,≤ 0.25
16,LTHG,0.944
17,HWMN,≤ 0.25
18,DKVH,≤ 0.25
19,NTGD,≤ 0.25
20,YMCL,0.261
21,SWLY,≤ 0.25
22,RKGD,≤ 0.25
23,QGHG,≤ 0.25
24,GASH,≤ 0.25
25,HKIV,≤ 0.25

row,Variant,enrichment ratio
1,RYQS,≤ 0.25
2,DAAL,≤ 0.25
3,IVPI,≤ 0.25
4,FHPH,0.683
5,AHQR,≤ 0.25
6,RKCH,≤ 0.25
7,AARC,≤ 0.25
8,EESS,≤ 0.25
9,VSHI,0.387
10,HKGC,≤ 0.25
11,IVDG,≤ 0.25
12,WEGH,≤ 0.25
13,GEAN,≤ 0.25
14,ATTP,≤ 0.25
15,RWVN,1.59
16,IATN,≤ 0.25
17,EELM,≤ 0.25
18,QCMG,≤ 0.25
19,ELEK,≤ 0.25
20,AGPR,≤ 0.25
21,ISCC,≤ 0.25
22,QYDR,≤ 0.25
23,WNYF,≤ 0.25
24,FMID,≤ 0.25
25,IDDN,≤ 0.25

row,Variant,enrichment ratio
1,MVNR,≤ 0.25
2,IHRI,≤ 0.25
3,QWGE,≤ 0.25
4,FTEM,≤ 0.25
5,SSAT,8.03
6,SSKW,≤ 0.25
7,KNRE,≤ 0.25
8,PKLY,≤ 0.25
9,ARRL,≤ 0.25
10,LRVD,≤ 0.25
11,ACAR,0.901
12,LPVV,≤ 0.25
13,FFVF,≤ 0.25
14,FDPE,≤ 0.25
15,IKNK,≤ 0.25
16,QDKN,≤ 0.25
17,IQTW,≤ 0.25
18,GIGM,36.1
19,GNTF,≤ 0.25
20,LEPH,≤ 0.25
21,MMCL,4.1
22,TPQL,0.944
23,HKNR,≤ 0.25
24,KANC,≤ 0.25
25,PWRG,≤ 0.25

row,Variant,enrichment ratio
1,LLKQ,≤ 0.25
2,PNSM,≤ 0.25
3,HRAW,≤ 0.25
4,IVYQ,≤ 0.25
5,RYNS,≤ 0.25
6,WYRS,≤ 0.25
7,REWL,1.09
8,CYSF,≤ 0.25
9,VDRQ,≤ 0.25
10,KEFM,≤ 0.25
11,SIKA,≤ 0.25
12,KDTK,≤ 0.25
13,GMIC,≤ 0.25
14,GDMP,≤ 0.25
15,HQNA,≤ 0.25
16,RSAI,≤ 0.25
17,GPSE,≤ 0.25
18,TFNR,≤ 0.25
19,IGPM,≤ 0.25
20,TKPK,≤ 0.25
